The whole screen tested about 410,000 compounds, of which about 7,200 (1.8%) were called active. Inconclusive results, whose numbers are uncertain, are shown with a selection of clear calls. Calls follow the shape of the dose curve; as a rule, active = well fitted activation curve with a large enough effect; inconclusive = small, poorly fitted or top-dose-only effect, or another doubt; inactive = no such curve, though single readings can be large or run the other way. Potencies of inconclusive entries are doubtful fits and often do not repeat.
Test: qHTS of TDP-43 Inhibitors; also: nearly all actives have a fitted effect of over 50% in size; as to growth rescue (activation): % of control where 0% means no effect
Conditions: TDP-43 expressing yeast growth rescue, BacTiter-Glo, 24 h; growth rescue (activation): at 46.1 µM (top of the series) unless noted
Method in brief: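 Yeast cells expressing TDP-43 under galactose induction are exposed to compounds for 24 hr at 30 deg C. BacTiter-Glo luminescence measures growth, so protective compounds score as activators.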
Potency is read from the fitted curve at half-maximal effect; tags tell the direction and shape of the fitted curve.

Potency, active:
O=C(COC(=O)c1c2ccccc2cc2ccccc12)NCC(F)(F)F 15.8 µM, O=C(COCc1cc(-c2ccc3c(c2)OCO3)on1)NCc1ccccc1Cl 28.2 µM

Potency, inconclusive:
O=C1C2C3C=CC(C4CC34)C2C(=O)N1/N=C/c1ccc(-c2cccc([N+](=O)[O-])c2)o1 (stereo not given) 15.8 µM [activator, single point], O=C(COc1ccccc1)Nc1ccccc1OCc1cc(=O)n2ccccc2n1 2.51 µM [activator, full curve, poor fit], O=C(C[n+]1ccc2ccccc2c1)c1cccc2ccccc12 14.1 µM [activator, partial curve], O=C(Nc1ccc(Cl)c(Cl)c1)c1ccncc1 15.8 µM [activator, partial curve], CCOc1ccc2nc(N3CCCC(C(=O)NC4CCCC4)C3)sc2c1 (stereo not given) 15.8 µM [activator, single point], Cc1nc2scc(C)n2c(=O)c1S(=O)(=O)N1CCN(c2cccc(C(F)(F)F)c2)CC1 22.4 µM [activator, single point], Cc1sc(N2CCN(S(=O)(=O)c3ccc4c(c3)NC(=O)CO4)CC2)nc1-c1ccccc1 11.2 µM [activator, partial curve], CCOC(=O)CC(=O)CSc1ncnc2c1nnn2-c1ccc(F)cc1 12.6 µM [activator, single point], CN1C(=O)SC(Nc2cccc3ccccc23)C1=O (stereo not given) 11.2 µM [activator, single point], OCCCNc1cc(-c2ccccc2)nc2cc(-c3ccc(F)cc3)nn12 3.55 µM [activator, single point], Cc1cc(C)c(S(=O)(=O)N2CCN(C(=O)C3COc4ccccc4O3)CC2)c(C)c1 (stereo not given) 20 µM [activator, partial curve, poor fit]

Potency, inactive:
NNC(=O)c1ccc(CSc2cccc3cccnc23)cc1, Cc1cccc(NC(c2ccc(O)cc2)c2ccc3ccc(C)nc3c2O)n1 (stereo not given), Cc1ccc(C(=O)c2cc([N+](=O)[O-])ccc2N2CCCCC2)cc1, COc1ccc(-c2cc(C(F)F)n3ncc(C(=O)N4CCSCC4)c3n2)cc1, COc1ccc(/C=C(/NC(=O)c2ccccc2)C(=O)NCCN2CCOCC2)cc1OC, CC(C)OC(=O)N(C)C[C@H]1OCc2cn(nn2)CCCC(=O)N([C@H](C)CO)C[C@@H]1C

Growth rescue (activation), inconclusive:
Fc1cccc(Cc2c(-c3ccco3)nc3ccc(Cl)cn23)c1 -83% [activator]

Reference: PubChem BioAssay AID652104 (National Center for Advancing Translational Sciences (NCATS), 2013)
